1 compound from PubChem BioAssay AID290 (DTP/NCI, 2004) can be followed below.

Records with an inconclusive call do not appear. Not every entry of the source has a single result; some have several. Only these are listed. An entry can have further records. Results that share an entry do not match, cause unknown; they may come from other doses, times, organisms or constructs than stated.

The assay deals with mice, P1798 lymphosarcoma sc, survival or tumor weight T/C. The experiment in a line: NCI In Vivo Anticancer Drug Screen. Data for tumor model P1798 Lymphosarcoma (subcutaneous) in unknown mice. As to conditions: endpoint: mean tumor weight; dose: 0.31 mg/kg/injection; schedule: Q01DX010 (ip); vehicle: other; higher = larger tumour. The method, then:
The antitumor activity of compounds was measured in mice bearing transplantable tumors. Survival or tumor size were measured and the results are expressed as the measurement made in the treated group (T) divided by the measurement made in the vehicle treated control group (C). The tumor model used in this assay is P1798 Lymphosarcoma (subcutaneous) in unknown mice

On to `CN(Cc1cnc2nc(N)nc(N)c2n1)c1ccc(C(=O)N[C@@H](CCC(=O)O)C(=O)O)cc1`, for which the T/C was 70 % of control, 73 % of control, 97 % of control.
